Data published in PubChem BioAssay AID1508623 (National Center for Advancing Translational Sciences (NCATS), 2021).
About 450 (0.94%) of roughly 48,000 compounds were called active. Another 19% or so got no clear call; they are omitted. Calls follow the shape of the dose curve; as a rule, active = well fitted inhibition curve with a large enough effect; inconclusive = small, poorly fitted or top-dose-only effect; inactive = no such curve, though single readings can be large or run the other way. The list shows a part of the results.

Test: Primary qHTS for Identification of Small Molecule Inhibitors of Huntingtin Promoter Activity; also: nearly all actives have a fitted effect of over 50% in size
Conditions: HEK293 HTT promoter firefly luciferase reporter (activity 0% = vehicle and -100% = no light), 24 h; series mostly up to 57.5 µM; activity change, negative = inhibition: at the top concentration
Method in brief: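 HEK293 luciferase promoter-reporter cells (2,500/well) plated 24 h, then compounds added at up to 57.5 uM final for 24 h at 37 °C. Firefly luminescence by Dual-Glo, normalized to vehicle (0%) and zero RLU (-100%).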

Activity change, negative = inhibition, inactive:
COc1ccc(CCNC(=O)c2cc3c(=O)oc4ccc(C)cc4c3s2)cc1OC -6.29%
CCNC(=O)c1cc2n(n1)CCCN(Cc1ccc(C)cc1)C2=O -14.3%
COc1ccc(OCC(=O)Nc2ccc3nn(-c4ccc(OC)cc4)nc3c2)cc1 -7.41%
O=C(C1CCN(c2ncnc3c2nc2n3CCCCC2)CC1)N1CCN(c2ccc(Cl)cc2)CC1 -9.69%
Cc1nn(C(=O)c2cccc(F)c2)c(C)c1S(=O)(=O)N1CCOCC1 -15.7%
COc1ccc(Nc2cc(C(=O)NC3CCCC3)c3ccccc3n2)cc1 -5.64%
COc1ccccc1CNc1nc2c(S(=O)(=O)c3ccccc3)nnn2c2ccc(Cl)cc12 11.2%
Cc1ccc(NC(=O)c2c(NC(=O)c3ccccc3Cl)sc3c2CCC3)cc1 -18.1%
O=C(CSc1nccn1Cc1ccc(F)cc1)NCc1ccc(F)cc1 -16.4%
CN1CCN(C(=O)Cn2ncc3c4ccccc4n(Cc4ccc(Cl)cc4)c3c2=O)CC1 -16.7%
CS(=O)(=O)N1CCc2cc(C(=O)N3CCN(c4ccccc4F)CC3)ccc21 -24.6%
O=C1Cc2cc(Cl)ccc2N1 2.26%
Cc1ccccc1NC(=O)Cn1nnc(C(=O)NCCc2ccccc2)c1N -2.57%
CCc1nn2c(=O)c(S(=O)(=O)Nc3ccc(Br)cc3F)c(C)nc2s1 -27.5%
CC(=O)c1cccc(NC(=O)Cn2nc(C(F)(F)F)c3c2CCC3)c1 -22.8%
CSc1nc(=O)c2c(n1C)NC(=O)CC2c1cc(F)cc(F)c1 (stereo unspecified) -11.4%
Cc1ccc2nc(Cl)c3cc(C(=O)NCCCN(C)Cc4ccccc4)sc3c2c1 -12%
COc1ccc(C2C(C(=O)Nc3ccc(C)cc3C)=C(C)Nc3nc(SCc4cccc(C)c4)nn32)c(OC)c1 (stereo unspecified) -2.74%
COc1ccccc1-c1nn2c(=O)cc(CN3CCN(C(=O)/C=C/c4ccccc4)CC3)nc2s1 -22.5%
CN(C)c1ccc(Nc2nc3ccccc3n3nnnc23)cc1 -19.9%
COc1ccc(N2CCN(S(=O)(=O)c3ccc(-c4cnc(C5CC5)o4)cc3)CC2)cc1 -25.5%
CC1=C(C(=O)Nc2ccc(C)cc2C)C(c2ccc(Br)cc2)n2ncc(C(=O)Nc3cccc(C)c3)c2N1 (stereo unspecified) -12.3%
COc1ccccc1CNC(=O)CSc1nc(=O)[nH]c2c1CCC2 -11.1%
CCc1ccc(S(=O)(=O)NCc2nc3cccnc3n2Cc2cccc(OC)c2)cc1 -8.21%
CCCCCn1c(CNC(=O)c2ccccc2)nc2ccccc21 -8.16%
CCN(CC)c1ccc(-n2nc3cc(C)c(NC(=O)c4ccccc4C)cc3n2)c(C)c1 -32.7%
Cc1c(Cl)cccc1Nc1nn2c(=O)c3ccc(C(=O)NCCC4=CCCCC4)cc3nc2s1 -26.3%
Cc1cc(C)c(S(=O)(=O)N2CCN(Cc3ccc4c(c3)OCO4)CC2)cc1C -20%
CCOC(=O)C1=C[C@]2(CC)CCCN3CCc4c(n1c1ccccc41)[C@@H]32
Cc1ccc(-n2c(=O)c3c(C)c(C)sc3n(Cc3ccc(F)cc3Cl)c2=O)cc1C -10.3%
COc1ccc(CCNC(=O)Cc2c(C)c3cc4c(C)coc4cc3oc2=O)cc1OC -1.05%
Oc1ccc(-c2nc3ccc(Cl)cn3c2Nc2ccc3c(c2)OCO3)cc1 12.7%
Cc1cc(C)c(NS(=O)(=O)c2ccc(-c3coc(C)n3)cc2)c(C)c1 -25.9%
COc1cc(C(=O)NCc2nc3cccnc3n2Cc2ccc(C)cc2)cc(OC)c1OC -1.8%
CC(=O)c1ccc(NC(=O)Cn2ncc3c4ccccc4n(Cc4ccccc4)c3c2=O)cc1 -15.3%
O=C(NCc1ccc(Cl)cc1)C1CCN(S(=O)(=O)c2ccccc2)CC1 -36.4%
COc1ccc(N(C(=O)c2ccccc2)S(=O)(=O)c2ccc3c(c2)n(C)c(=O)n3C)cc1 -7.01%
O=C1CC(=O)Nc2cc(S(=O)(=O)N3CCOc4ccc(Cl)cc43)ccc2N1 -28.8%
O=C(c1ccc2c(c1)N(Cc1cccc(Cl)c1)C(=O)c1ccccc1S2=O)N1CCN(c2cccc(C(F)(F)F)c2)CC1 (stereo unspecified) -42.8%
Cc1ccc(N(C)C(=O)CN2C(=O)CCc3cc(S(=O)(=O)N4CCOCC4)ccc32)cc1 -15.7%
COc1ccccc1CNC(=O)CCn1cnc2ccccc2c1=O -5.51%
O=C(NC1CC(=O)N(c2ccc(F)cc2)C1)c1ccc2c(c1)OCO2 (stereo unspecified) 6.49%
CCN1CCN(C(c2ccccc2Cl)c2c(O)cc(C)n(Cc3ccco3)c2=O)CC1 (stereo unspecified) 0.573%
O=C(Cn1c(=O)n2nc(-c3cccc(F)c3)nc2c2ccccc21)N1CCN(c2ccc(F)cc2)CC1 11.9%
Cc1cccc(Cn2nnc3c(=O)[nH]c(C4CCCN(C(=O)c5ccccc5Cl)C4)nc32)c1 (stereo unspecified) -19.7%
Cc1cccc(N2CCN(C(=O)c3noc4c3CCCCC4)CC2)c1C -3.51%
CC(NC(=O)c1ccc(F)cc1)c1nc2ccccc2[nH]1 (stereo unspecified) 17.6%
CCc1ccc(NC(=O)Cn2c(=O)n(-c3cc(OC)c(OC)c(OC)c3)c(=O)c3ccccc32)cc1 -20.6%
Cc1cc(C(=O)C(=O)Nc2nncs2)c(C)n1-c1ccc(Cl)cc1 -0.751%
COc1ccccc1NC(=O)c1cn(-c2ccccc2)nc1-c1ccccc1 -26.9%
COc1ccc(N2CCN(C(=O)CNS(=O)(=O)c3ccc(Br)s3)CC2)cc1 -30%
N#Cc1nc(/C=C/c2ccc(F)cc2)oc1NCc1ccc(F)cc1 4.5%
O=C(CNC(=O)c1ccc(F)cc1)OCc1cc(=O)n2nc(C3CCCCC3)sc2n1 -3.57%
COc1ccc(OC)c(NC(=O)CN2CCCN(Cc3ccccc3Cl)S2(=O)=O)c1 -29.6%
CCOc1cc(CNC(=O)c2ccc3c(c2)N(C)C(=O)C2CCCCN32)ccc1OC (stereo unspecified) 9.64%
CCOc1ccccc1C(=O)NCc1nc2cccnc2n1Cc1ccc(C)cc1 -13.5%
COc1ccc(CNC(=O)CCCn2nc(C)c3c(C)n(-c4ccc(C)cc4)nc3c2=O)cc1OC -33.6%
CCN(c1ccccc1)c1nnc(NC(=O)Nc2ccc(Br)c(C)c2)s1 8.69%
O=C(c1ccc2c(Cl)c3c(nc2c1)CCCC3)N1CCN(c2cccc(C(F)(F)F)c2)CC1 -9.73%
O=C(CN1C(=O)COc2ccc(S(=O)(=O)N3CCCCCC3)cc21)N1CCN(c2ccccc2F)CC1 -16.4%
CCOc1ccc(CNC(=O)CCS(=O)(=O)c2cc3c4c(c2)CCN4C(=O)CC3)cc1OC -17.3%
CCc1ccc(S(=O)(=O)c2cn(CC)c3cc(N4CCCCC4)c(F)cc3c2=O)cc1 6.78%
COc1ccc2nc(NC(=O)c3cc(=O)c4cc(C)cc(C)c4o3)sc2c1 -8.94%
COc1cc(OC)c(NC(=O)C2CCN(S(=O)(=O)c3ccc4c(c3)oc(=O)n4C)CC2)cc1Cl 6.43%
COc1ccc2c(CNCCc3cccs3)c(C(=O)O)n(Cc3cccc(F)c3)c2c1 -22.6%
Cc1ccc(CNC(=O)CN2CCN(Cc3ccc(F)cc3Cl)C2=O)cc1 -0.945%
Nc1c(C(=O)NCc2ccc(Cl)cc2)sc2nc(-c3ccc(F)cc3)ccc12 -10.8%
CCc1ccc(Nc2sc(C(=O)c3ccc(F)cc3)c(N)c2S(=O)(=O)c2ccccc2)cc1 -20.3%
COc1ccc(C(=O)N2CCN(CC(=O)N3CCOCC3)CC2)cc1 -2.18%
COc1ccc(OC)c(NC(=O)CCNS(=O)(=O)c2ccc3c(c2)oc(=O)n3C)c1 -5.65%
COc1cccc(CNC(=O)C2CCN(c3nc4ccc(Cl)cc4[nH]3)CC2)c1 -10%
CCCCc1cc(=O)oc2cc(C)c3c(C)coc3c12 -8.15%
Cc1ccc(C2c3c(-c4ccccc4O)n[nH]c3C(=O)N2CCCO)cc1 (stereo unspecified) -29.7%
CCOC(=O)c1cccc(NC(=O)c2ccc3c(c2)nnn3C2CCCC2)c1 -1.4%
Cn1cnc(S(=O)(=O)N2CCCC(C(=O)Nc3ccc(F)cc3Cl)C2)c1 (stereo unspecified) -28.4%
Cc1ccc(Cn2c(C(=O)Nc3cccc(Cl)c3)cc3sccc32)cc1 -12.6%
COc1cc(C(=O)NC2CCCNC2)cc(OC)c1OC (stereo unspecified) 10.7%
Cn1nnnc1SCCNCc1ccccc1OCc1ccccc1F -28.5%
COc1cccc(C(=O)Nc2ccc(Cl)c(-c3nc4ccccc4[nH]3)c2)c1 -20.8%
CCc1ccc(OCCCSc2nc(-c3ccc(C(C)(C)C)cc3)nc3cc(=O)[nH]n23)cc1 -5.61%
Cc1ccc(S(=O)(=O)c2cn(C)c3cc(N4CCCCCC4)c(F)cc3c2=O)cc1 -10%
CC(=O)c1ccc(NS(=O)(=O)c2cc(-c3cnc(C4CC4)o3)ccc2C)cc1 -27.1%
Cc1ccccc1NC(=O)c1ccc2nc(Cc3ccccc3)oc2c1 -29.9%
CCOc1ccc(NC(=O)c2cc3c(-c4ccccc4F)nn(C)c3s2)cc1 -15.5%
Cc1ccc(Cn2c(=O)n(-c3ccccc3)c(=O)c3ccc(C(=O)NCc4ccco4)cc32)cc1 -26.3%
Cn1c(SCc2ccc(F)cc2)nc2c([nH]c3ccccc32)c1=O -0.462%
CCOC(=O)c1c(C)oc2nc(C)nc(N3CCN(c4ccc(C(C)=O)cc4)CC3)c12 1.42%
CC(C)(C)OC(=O)N1CCC(c2c(C(=O)NCc3ccc(F)cc3)cnn2-c2ccc(F)cc2)CC1 -25.7%
COc1cccc(C(=O)N(Cc2sccc2C)C2CCS(=O)(=O)C2)c1 (stereo unspecified) -9.74%
COc1ccc(C(=O)Nc2cc(-c3cccc(C)c3)nn2-c2ccccc2)cc1 -29.4%
CCN(CC)CCNC(=O)c1sc2nc3n(c(=O)c2c1C)CCCCC3 1.32%
COc1ccc2cc3cc(C(=O)N4CCN(c5ccc(C(C)=O)cc5)CC4)sc3nc2c1Cl -4.64%
O=S(=O)(NCc1nc2cccnc2n1Cc1ccc(F)cc1)c1ccc2c(c1)CCCC2 -17.2%
CCCC(=O)O[C@]1(C(=O)CC)CC[C@H]2[C@@H]3CCC4=CC(=O)CC[C@]4(C)[C@H]3[C@@H](O)C[C@@]21C -9.39%
CCOC(=O)c1ccc(NC(=O)c2c(NCc3cccs3)sc3c2CCCCC3)cc1 -28.2%
Cc1cc(NC(=O)Cn2c(=O)nc(-c3ccccc3F)c3cc(Cl)ccc32)ccc1Br -13%
